For 96 compounds, relative growth results are on record in the supplement of paper PMC9446081.

About 220 (0.56%) of roughly 39,000 compounds showed activity. The list shows a part of the results.
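Note: static incubation at 37 °C against the wild-type strain, values averaged over two biological replicates.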

The assay relates to Escherichia coli K-12 BW25113. The assay can be described thus: relative growth (OD600 normalised to plate interquartile mean) (fraction); higher = less growth inhibition, active = 0.2 or less. The conditions noted are these: 50 µM; LB; incubation time: overnight (16-24 h).
Consider `C[C@@H]1CN([C@H](C)CO)C(=O)CCCn2cc(nn2)CO[C@H]1CN(C)C(=O)Oc1ccc2ccccc2c1`, for which the relative growth was inactive: 0.998.

`COCCN1[C@@H]2CC[C@H]1CN(c1ncccn1)C2`: the relative growth is inactive: 1.03.

For the compound `C[C@H]1[C@H](O)[C@@H](C)/C=C\C=C/CC\C=C/C=C\C=C/C=C\[C@@H](O[C@@H]2O[C@H](C)[C@@H](O)[C@H](N)[C@@H]2O)C[C@H]2O[C@@](O)(C[C@@H](O)[C@@H]2C(=O)O)C[C@@H](O)[C@@H](O)CC[C@@H](O)C[C@@H](O)C[C@@H](O)CC(=O)O[C@H]1C`, the relative growth was inactive: 1.01.

Turning to `CN(C)C(=O)Oc1ccc[n+](C)c1`, the relative growth is inactive: 1.01.

On to `NCC[C@H]1COc2ccccc2O1`, for which the relative growth is inactive: 0.972.

Regarding `Cc1nccc2c1[nH]c1ccccc12`, the relative growth is inactive: 1.03.

Take `COC(N)=O`: the relative growth was inactive: 0.989.

For the compound `c1ccc(-c2ccncc2)cc1`, the relative growth is inactive: 1.01.

Consider `CCN1CCN(c2nc([N+](=O)[O-])nn2C)CC1`, for which the relative growth was inactive: 0.996.

Turning to `Nc1ncnc2c1ncn2CCOCP(=O)(O)O`, the relative growth is inactive: 0.982.

As to `Nc1ccc(-c2ccc(N)cc2)cc1`, the relative growth was inactive: 1.03.

As to `OCCN(CCO)CCO`, the relative growth was inactive: 0.97.

On to `Cc1n[nH]c(=O)nc1N1CCN(C)CC1`, for which the relative growth was inactive: 1.02.

For `C[C@H](CO)N1C[C@H](C)[C@@H](CN(C)C(=O)Oc2ccc3ccccc3c2)OCc2cnnn2CCCC1=O`, the relative growth is inactive: 1.01.

For the compound `C[C@H]1O[C@H](C[N+](C)(C)C)C[C@@H]1O`, the relative growth was inactive: 1.01.

With `C[C@@H]1CN([C@H](C)CO)C(=O)CCCn2nncc2CO[C@@H]1CN(C)C(=O)Oc1cccc2ccccc12`, the relative growth is inactive: 1.

Regarding `Cc1csc(CCN)n1`, the relative growth is inactive: 1.01.

Turning to `CC1=NCCN=C(C)C1N1CCOCC1`, the relative growth was inactive: 0.862.

For `CN1C[C@@H](NC(=O)C2CC2)[C@H]2OCCC[C@H]21`, the relative growth is inactive: 0.993.

For the compound `CC1(C)[C@@H](C=C(Br)Br)[C@@H]1C(=O)O[C@@H](C#N)c1cccc(Oc2ccccc2)c1`, the relative growth is inactive: 0.993.

For the compound `CCCNC(=O)C1=NO[C@]2(CCNC2)C1`, the relative growth was inactive: 0.977.

`C=CCN1CCC23c4c5ccc(O)c4OC2C(=O)CCC3(O)C1C5.Cl` (stereo unspecified): the relative growth is inactive: 1.11.

`c1cc2c(cc1CN1CCNCC1)OCO2`: the relative growth was inactive: 0.976.

Take `NCCN1CCN(c2ccc(F)cc2)CC1`: the relative growth was inactive: 0.993.

Regarding `CC(C)(C)[C@H]1CC[C@@]2(CC1)C[C@@H](C[Si](C)(C)C)OO2`, the relative growth is inactive: 0.996.

Consider `C[C@@H]1CCC(=O)O1`, for which the relative growth is inactive: 0.988.

For the compound `Cc1c(N)nc([C@H](CC(N)=O)NC[C@@H](N)C(N)=O)nc1C(=O)N[C@H](C(=O)N[C@@H](C)[C@H](O)[C@@H](C)C(=O)N[C@@H](C(=O)NCCc1nc(-c2nc(C(=O)NCCC[S+](C)C)cs2)cs1)[C@@H](C)O)[C@@H](O[C@H]1O[C@H](CO)[C@H](O)[C@@H](O)[C@H]1O[C@H]1O[C@H](CO)[C@@H](O)[C@H](OC(N)=O)[C@@H]1O)c1cnc[nH]1`, the relative growth is active: 0.0324.

`Cc1ccc(-n2nccn2)c(C(=O)N2CCN(c3nc4cc(Cl)ccc4o3)CCC2C)c1` (stereo unspecified): the relative growth was inactive: 0.992.

For `O=[N+]([O-])c1cc([As](=O)(O)O)ccc1O`, the relative growth is inactive: 1.13.

Take `O=C1CC2OCC=C3CN4CCC56c7ccccc7N1C5C2C3CC46.O=S(=O)(O)O` (stereo unspecified): the relative growth was inactive: 1.06.

Take `O=C1NCN(c2ccccc2)C12CCNCC2`: the relative growth is inactive: 0.957.

Take `Cl.NCC(CC(=O)O)c1ccc(Cl)cc1` (racemic): the relative growth was inactive: 1.03.

Consider `CN1CCN(C(=O)[C@H]2C[C@H]3CN(c4ncccn4)C[C@@H]3N2C)CC1`, for which the relative growth was inactive: 0.975.

For the compound `C#CCO[C@H]1CN2CCC1CC2`, the relative growth is inactive: 1.

Consider `N[C@@H](C(=O)O)c1nn[nH]n1`, for which the relative growth was inactive: 1.03.

Turning to `C=C(C)[C@@H]1CCC(C)=C[C@H]1c1c(OC)cc(C)cc1OC`, the relative growth was inactive: 0.989.

Regarding `CC(C)[C@@]1(NC(=O)[C@H]2C[C@@H]3c4cccc5[nH]cc(c45)C[C@H]3N(C)C2)O[C@@]2(O)[C@H]3CCCN3C(=O)[C@@H](Cc3ccccc3)N2C1=O`, the relative growth is inactive: 1.02.

As for `O=C1CC[C@@H]2NCC[C@H]2N1`, the relative growth is inactive: 0.986.

Turning to `N[C@H]1CCN(c2cccnc2)C1`, the relative growth is inactive: 0.979.

Consider `O=c1[nH]oc2c1CCNC2`, for which the relative growth is inactive: 1.

Take `CC12CCC3C(CCC4CC(O)CCC43C)C1CCC2O` (stereo unspecified): the relative growth is inactive: 0.98.

Turning to `O[C@H]1CNC[C@@H]1N1CCCC1`, the relative growth was inactive: 0.971.

In the case of `C[As](C)SC[C@H](NC(=O)CC[C@H](N)C(=O)O)C(=O)NCC(=O)O`, the relative growth was inactive: 0.984.

Take `COC(=O)[C@]1(Cc2ccccc2CN=[N+]=[N-])N=C(c2ccc(OCCCO)cc2)O[C@@H]1c1ccccc1CN=[N+]=[N-]`: the relative growth is inactive: 1.04.

As to `CC(C)CC(CN)CC(=O)O` (stereo unspecified), the relative growth is inactive: 1.07.

As for `CN(C)[C@@H](CN)c1cn(C)c2ccccc12`, the relative growth is inactive: 1.02.

Turning to `C[CH2][Hg][S]c1ccccc1C(=O)[O-].[Na+]`, the relative growth was active: 0.0484.

Consider `CC(=O)CC1CCCCN1.Cl` (stereo unspecified), for which the relative growth was inactive: 1.01.

Turning to `NCCc1ccc(O)cc1`, the relative growth is inactive: 1.04.

Consider `CCC(c1cccc(O)c1)C(C)CN(C)C.Cl` (stereo unspecified), for which the relative growth was inactive: 0.847.

In the case of `CCC12C=CCN3CCC4(c5ccc(OC)cc5N(C)C4C(O)(C(=O)OC)C1OC(C)=O)C32` (stereo unspecified), the relative growth is inactive: 1.01.

Consider `[N-]=[N+]=CC(=O)OCC(N)C(=O)O` (stereo unspecified), for which the relative growth was inactive: 0.893.

`C[C@@H](N)[C@@H](O)c1ccccc1`: the relative growth is inactive: 0.978.

Regarding `C[C@H](O)[C@@]12[C@H]3CC=C[C@@H]1N2CC3` (stereo partly specified), the relative growth was inactive: 0.987.

Take `CN1C[C@H]2CON[C@@H]2C1`: the relative growth was inactive: 1.01.

With `Cn1cc(NC(=O)c2cc(NC(=O)CNC(=N)N)cn2C)cc1C(=O)NCCC(=N)N`, the relative growth was inactive: 1.01.

In the case of `O=C(NC[C@H]1CC[C@@H]2NC[C@@H]2O1)C1CCCC1`, the relative growth was inactive: 0.98.

Take `Cl.N=C(N)NN`: the relative growth is inactive: 0.909.

Take `CCC1(c2ccc(N)cc2)CCC(=O)NC1=O` (stereo unspecified): the relative growth was inactive: 1.11.

Take `O=C(NCNC(=O)N[C@H]1C(=O)NC(=O)N1CO)N[C@H]1C(=O)NC(=O)N1CO`: the relative growth is inactive: 0.902.

Consider `CNCC(=O)c1ccc(O)c(O)c1.Cl`, for which the relative growth was inactive: 1.07.

Regarding `Cc1[nH]c2ccccc2c1CN(C)C`, the relative growth is inactive: 1.04.

With `C[C@@H](N)Cc1cnc[nH]1`, the relative growth was inactive: 0.996.

For the compound `Cc1ccc(OC(=O)N(C)C[C@H]2OCc3ccccc3-c3c(n(C)c4ccccc34)C(=O)N([C@H](C)CO)C[C@@H]2C)cc1`, the relative growth was inactive: 1.

Turning to `COc1ccc2c3c([nH]c2c1)C(C)=NCC3`, the relative growth is inactive: 0.921.

Take `N[C@H]1CNC(=O)C1`: the relative growth is inactive: 1.01.

Take `CC1CCC2(NC1)OC1CC3C4CC=C5CC(O)CCC5(C)C4CCC3(C)C1C2C` (stereo unspecified): the relative growth was inactive: 0.957.

Regarding `CN(CC[C@@H](N)CC(=O)N[C@H]1C=C[C@H](n2ccc(N)nc2=O)O[C@@H]1C(=O)O)C(=N)N`, the relative growth is inactive: 0.949.

Turning to `COc1ccc(O)c(C(C)(C)C)c1`, the relative growth was inactive: 0.926.

As to `COC(=O)C[C@@H]1CC[C@@H]2NC[C@H](O)COC[C@H]2O1`, the relative growth is inactive: 0.991.

With `CC(C)=CCC[C@]1(C)C=Cc2c(O)c3c(c(CC=C(C)C)c2O1)O[C@]12[C@H](C[C@@H]4C[C@H]1C(C)(C)O[C@]2(C/C=C(/C)C(=O)O)[C@@H]4O)C3=O`, the relative growth was inactive: 0.877.

For `CC(C)(C)c1o[nH]c(=O)c1C[C@@H](N)C(=O)O`, the relative growth was inactive: 0.984.

As for `[O-][n+]1ccccc1[S][Zn][S]c1cccc[n+]1[O-]`, the relative growth is active: 0.0506.

`CN[C@H]1C[C@@H](N)[C@H](O)[C@@H](O[C@@H]2O[C@H](CO)[C@H](O)[C@@H]3O[C@@]4(O[C@H]23)O[C@H]([C@@H](N)CO)[C@H](O)[C@H](O)[C@H]4O)[C@@H]1O`: the relative growth is active: 0.0323.

As for `N=C1NC(=O)N2CC12` (stereo unspecified), the relative growth is inactive: 0.832.

Turning to `Cc1ccc(C[C@H]2CCCN2)cc1C`, the relative growth is inactive: 0.99.

For `O=c1cccc2n1C[C@@H]1C[C@H]2CN(CCO)C1`, the relative growth is inactive: 1.02.

As to `NC(=O)c1cn([C@H]2O[C@@H](CO)[C@H](O)[C@@H]2O)c2ncnc(N)c12`, the relative growth is inactive: 0.892.

With `CO[C@@H]1[C@H](OC(=O)NC(=O)CCl)CC[C@]2(CO2)[C@H]1[C@@]1(C)O[C@@H]1CC=C(C)C`, the relative growth is inactive: 0.986.

For `Cc1ccc(C)c(C(=O)[C@H](N)CC(C)C)c1`, the relative growth was inactive: 0.907.

As to `O=C1NCc2cnnn2-c2ccccc21`, the relative growth was inactive: 0.974.

Regarding `C[C@@H](N)Cc1ccc(O)cc1`, the relative growth was inactive: 0.992.

In the case of `CN1CCCN(Cc2ccc(CN)cc2)CC1`, the relative growth is inactive: 1.02.

Regarding `CC(C)(C)OC(=O)N1C[C@H]2C[C@@H]1CN2`, the relative growth was inactive: 1.

`CCC(CC)C(=O)N[C@@H]1[C@@H]2CNC[C@@H]21`: the relative growth was inactive: 1.01.

On to `CCC1(CC)C(=O)C=CNC1=O`, for which the relative growth was inactive: 1.11.

In the case of `O=C(O)CNCP(=O)(O)O`, the relative growth is inactive: 0.997.

Turning to `CC1CCC2(NC1)OC1CC3C4CCC5CC(O)CCC5(C)C4CCC3(C)C1C2C.Cl` (stereo unspecified), the relative growth is inactive: 0.964.

With `C=C(C)C1Cc2c(ccc3c(=O)c4c(oc23)COc2cc(OC)c(OC)cc2-4)O1` (stereo unspecified), the relative growth was inactive: 0.962.

On to `COc1ccc(C=O)cc1`, for which the relative growth was inactive: 1.03.

As for `CC(=O)OCC1=C(C(=O)[O-])N2C(=O)C(NC(=O)CCCC(N)C(=O)[O-])C2SC1.[Zn+2]` (stereo unspecified), the relative growth is inactive: 0.996.

Consider `CN1C[C@@H]2c3nc(N(C)C)ncc3CS(=O)(=O)[C@H]2C1`, for which the relative growth is inactive: 0.979.

For the compound `CC[n+]1c(-c2ccccc2)c2cc(N)ccc2c2ccc(N)cc21.[Br-]`, the relative growth is inactive: 0.915.

Take `N#Cc1cccnc1N1CCNCC1`: the relative growth was inactive: 1.01.

For the compound `O=[N+]([O-])O[C@@H]1CO[C@H]2[C@@H]1OC[C@@H]2O`, the relative growth is inactive: 0.992.

As for `CC(C)=CCCC1(C)C=Cc2c(O)c3c(c(CC=C(C)C)c2O1)OC12C(=CC4CC1C(C)(C)OC2(CC=C(C)C(=O)O)C4O)C3=O` (stereo unspecified), the relative growth is inactive: 1.07.
